For 62 molecules, TGI and GI50 results are on record in PubChem BioAssay (NCI).

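Each compound was tested at five concentrations against cells in 96-well plates for 48 hours. Abbreviation: GI50, concentration required for 50% inhibition of growth. The concentration for full growth arrest is given as TGI.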 A value given as a limit tells only on which side of the number the result lay.

For this assay, the system named is NCI-H322M lung. The experiment in a line: NCI tumour cell line growth inhibition, 48 h.
The molecule `CCn1c(=O)c2c3ccc(OC(C)=O)cc3[nH]c2c2ccc(OC(C)=O)cc21` showed a TGI of 91.1 µM.
Turning to `COc1cc2c3c(ncc2c(OC)c1OC)-c1cc2c(cc1C3)OCO2`, the GI50 is 17.7 µM and the TGI worked out at 55.9 µM.
Take `CCN(CC)CCOc1c(OC)c(Br)cc2c(C)c(C(=O)OC)oc12`: the GI50 was 6.19 µM and the TGI is 12.4 µM.
The molecule `CN1c2ccccc2S(=O)(=O)n2c(CCc3ccccc3)nnc21` registered a TGI greater than 100 µM.
Regarding `CC(=Nc1cc(Cl)cc(Cl)c1)c1ccncc1`, the TGI is 67.6 µM.
As for `Cc1cn(CCOCCOC(=O)NC(CCCNC(N)=O)C(=O)O)c(=O)[nH]c1=O` (configuration not stated), the TGI is greater than 100 µM.
Still for that read-out and setting: under `C=C(CCOC)CCC1CCCCC(=C)[C@H]1O` (some centres not stated) stands greater than 100 µM; under `Nc1cc2[nH]cnc2c(=O)[nH]1`, greater than 300 µM.
As to `CSc1nsc(S/C=C\C(=O)c2ccc(C)cc2)n1`, the GI50 was greater than 43.5 µM and the TGI was greater than 59.1 µM.
For the molecule `CC(C)(C)n1cc(-c2ccnc(NCCCNS(=O)(=O)c3ccc(Br)cc3)c2)c(-c2cccc(O)c2)n1`, the GI50 is 2.31 µM and the TGI was 5.38 µM.
With `CNC(=O)N(CCC#N)CCCN(C(=O)N(C)C)c1ccccc1`, the TGI was greater than 100 µM.
In turn, `CC1(C)C(=O)C=CC2(C)C1CC(O)C1(C)C2CCC2(C)C(c3ccoc3)OC(=O)C3OC321` (configuration not stated) displayed a TGI greater than 100 µM.
For `[N-]=[N+]=CC(=O)COC(=O)c1ccccc1`, the TGI was greater than 100 µM.
For the molecule `CC1=CC[C@](C)(O)[C@@]2(C)CC[C@H]3C(=C(C)C)C(=O)C[C@]3(C)C[C@H]12`, the TGI was greater than 50 µM.
The molecule `Clc1nc2c(C#Cc3ccccc3)ncnc2n1C1CCCCO1` (configuration not stated) showed a TGI of 30.5 µM.
With `C/C(=N\NC(=S)N1CCN(c2ccccn2)CC1)c1nccs1`, the TGI was determined as 18.5 µM.
As for `CC1=C(/C=C/C(C)=C/C=C/C(C)=C/C=C/C=C(C)/C=C/C=C(C)/C=C/C2=C(C)C(=O)C(O)CC2(C)C)C(C)(C)CC(O)C1=O` (configuration not stated), the TGI is greater than 100 µM.
`O=C1C(Cl)=C(c2ccc([N+](=O)[O-])cc2)C(=O)c2c(O)cccc21`: the TGI stood at 12.2 µM.
In turn, `COC(=O)C1CC23C=CCN4CC(C2C)C2(c5ccccc5NC12)C43` (configuration not stated) registered a TGI greater than 100 µM.
The molecule `COc1cccc(NC(=O)CC(=O)N2N=C(C)C(N=Nc3ccc(C(=O)O)cc3)C2=O)c1` (configuration not stated) gave a TGI greater than 100 µM.
Still for that read-out and setting: under `CCCCCCCCCCCCCCCCCCNC(=O)OCC(CNS(=O)(=O)CCC[n+]1cccc2ccccc21)COC` (configuration not stated) stands 20.6 µM.
On to `CCCCN(CCCC)CCc1c(C)cc(C)c(CCN(CCCC)CCCC)c1O`, for which the GI50 was 3.15 µM and the TGI was greater than 100 µM.
`O=c1oc2cccnc2n1CCCCN1CCN(c2ccccc2)CC1` showed a TGI greater than 100 µM.
In turn, `CCOC(=O)C1=C(Nc2ccc(Cl)c(Cl)c2)OC/C1=N\NC(=O)Cc1ccccc1` yielded a TGI greater than 100 µM.
In the case of `CCOC(=O)Nc1nc2cc(OCC)ccc2s1`, the GI50 was greater than 68.3 µM and the TGI is greater than 100 µM.
In turn, `O=C(CSc1nc(-c2ccccc2)c(-c2ccccc2)[nH]1)NNC(=S)Nc1ccccc1` showed a TGI greater than 100 µM.
For `COc1cc2c(c(OC)c1)C(=O)O[C@H](C)CCCC/C=C/C2`, the TGI is greater than 68.9 µM.
Same read-out and setting: the result for `COc1cc(C2c3cc4c(cc3[C@@H](OCCN(C)C)C3COC(=O)[C@H]23)OCO4)cc(OC)c1O` (some centres not stated) reads 7.92 µM.
As for `Cc1ccc2sc3ccc(N)cc3c(=O)c2c1`, the TGI is greater than 100 µM.
Regarding `NC(=S)N/N=C1\CCCC1C(O)(C(F)(F)Cl)C(F)(F)Cl` (configuration not stated), the TGI is greater than 10 µM.
In turn, `CC1CN=C(c2ccc(-c3nc(-c4ccc(C5=NCC(C)N5)cc4)nc(N(C)C)n3)cc2)N1` (configuration not stated) had a TGI of 3.94 µM.
The same measure, in the same setting: the result for `CC1CN=C(c2ccc(CN3CCC(C4CCN(Cc5ccc(C6=NCC(C)N6)cc5)CC4)CC3)cc2)N1` (configuration not stated) reads 69.5 µM.
Same read-out and setting: the result for `Cc1cccc(N=C2NC(=O)C(CC(=O)Nc3ccc(C)cc3C)S2)c1` (configuration not stated) reads greater than 100 µM.
Molecule `Cc1c(C#N)c(=N)oc2ccccc12` yielded a TGI greater than 100 µM.
On the same count and under the same terms, the result for `ClCc1ccc(C2OCCO2)cc1` reads 44.7 µM.
The molecule `CN(C)CCCc1c2ccccc2nc2ccc(Cl)cc12` returned a TGI of 25.9 µM.
The molecule `COC(=O)C1Cc2c([nH]c3ccccc23)C(c2ccccc2O)N1Cc1ccccc1` (configuration not stated) gave a TGI greater than 46.4 µM.
`CC1=NOC(=O)C1N=Nc1ccc(Br)c(C)c1` (configuration not stated) displayed a TGI of 93.2 µM.
As to `COC(=O)c1ccc2c(c1)C(=O)c1c-2n(CCCN)c(=O)c2cc(OC)c(OC)cc12`, the GI50 is 15.2 µM and the TGI is 37.3 µM.
In turn, `O=C(O)CCSC1=NCCN1` gave a TGI greater than 100 µM.
For the molecule `COC(=O)C(=O)C(C(=O)C(N)=O)c1nc2ccc(C(=O)c3ccccc3)cc2[nH]c1=O` (configuration not stated), the TGI is greater than 100 µM.
Still for that read-out and setting: under `COC(=O)[C@H]1N[C@@H](C(=O)OC)C23CCC[C@H]2CC[C@]1(C(OC)OC)C3` stands greater than 100 µM; under `CC(C#N)N(CCc1ccccc1)C(=O)c1ccccc1` (configuration not stated), greater than 100 µM.
`COc1cc2c(cc1OC)C(=O)/C(=C/c1ccc(O)cc1)CC2` had a TGI greater than 10 µM.
As to `CCCCCCCCCCCCCC(=O)NCC(OCC)OCC`, the TGI is greater than 100 µM.
In the case of `O=C1CCN2CCC(=O)c3c2c(cc2ccccc32)N1`, the TGI was greater than 100 µM.
In turn, `COC(=O)c1cc(C)ccc1C1CN=NC12Cc1c(C)cc(C)cc1C2=O` (configuration not stated) registered a TGI greater than 100 µM.
With `Oc1c(CN2CCCC2)cc(CSCc2ccccc2)c2cccnc12`, the GI50 was 0.616 µM and the TGI is 6.43 µM.
For the molecule `Cc1c(Cl)cccc1NC(=O)/C(Cl)=C(\Cl)C(=O)O`, the TGI was greater than 100 µM.
Take `CC[C@]1(O)C[C@@H]2CN(CCc3c([nH]c4ccccc34)[C@@](C(=O)OC)(c3cc4c(cc3OC)N(C)[C@H]3[C@@](O)(C(N)=O)[C@H](O)[C@]5(CC)[C@@H]6C[C@@H]6CN6CC[C@]43[C@@H]65)C2)C1`: the GI50 is 0.0174 µM and the TGI was greater than 33.3 µM.
In the same order, the values of `COc1ccc([C@@H](O)c2cc(-c3ncnc4cc(N5CCOCC5)ccc34)c(F)cc2Cl)nn1` are 3.04 µM and 43.6 µM.
Consider `CC(=O)c1cccc(-c2cccc(-c3ccn(CCN4CCOCC4)n3)c2)c1`, for which the GI50 is greater than 20 µM and the TGI was greater than 20 µM.
For the molecule `CS(=O)(=O)[O-].CS(=O)(=O)[O-].NC1CCCCC1N.[Pt+4]` (configuration not stated), the GI50 is greater than 100 µM and the TGI is greater than 100 µM.
With `Cc1cc2nc(-c3c(N)ncc(C#N)c3-c3ccc(Cl)cc3)[nH]c2cc1C`, the GI50 is 27.7 µM and the TGI was greater than 100 µM.
As for `NNC(=O)Cn1ccnn1`, the TGI is greater than 100 µM.
The same measure, in the same setting: under `CC(=O)Nc1ccc(/C=C2/NC(=S)N(/C=C3\C(=O)Oc4ccccc4C3=O)C2=O)cc1` stands greater than 100 µM; under `CN1C(=O)C2C=CC1C1CCC2N(C)C1=O` (configuration not stated), greater than 100 µM.
The molecule `COc1ccc2ccccc2c1CN1CCOCCOCCN(Cc2c(OC)ccc3ccccc23)CCOCCOCC1` displayed a TGI greater than 100 µM.
The same measure, in the same setting: the result for `O=c1nc2ccc3sc4ccccc4c(=O)c3n2c(=O)[nH]1` reads greater than 100 µM; that for `CC(C(=O)O)c1ccc(-c2ccccc2)c(F)c1` (configuration not stated), greater than 100 µM.
For the molecule `COc1cc(/C=C2\CC3C4CC=C5C[C@@H](O)CC[C@]5(C)C4CC[C@]3(C)C2=O)ccc1OCCCn1ccnc1` (some centres not stated), the GI50 is 24.4 µM and the TGI stood at 50.8 µM.
`C=C(C)[C@@H]1CC[C@]2(CO)CC[C@]3(C)[C@H](CC[C@@H]4[C@@](C)(CCCN)[C@H](C(=C)C)CC[C@]43C)[C@@H]12`: the GI50 was 1.66 µM and the TGI stood at 3.02 µM.
